Read counts are not given, so values of variants with three or more changes are uncertain.

B1: LINE1-mini (parent)
chain: GGCAGAGCUCAACACAGCGUGGCAAAGUGGCUGUGGCUAGACUGCC

The data set covers variants of B1. Nature of the data set: self-cleavage, relative activity (ratio to wild type); higher = more cleavage; in vitro, sequencing; the parent is a self-cleaving ribozyme.
For the variant GGCAGAGCCCAACACAGCGUAGCAAUGUGGCUGUGGAUAGACUGCC [U9C G21A A26U C37A], the self-cleavage was 0.03.
As to GGCAGAGCGCAUCACAACGUGGCAAAGUGGCUGUGGCUCGACUGCC [U9G A12U G17A A39C], the self-cleavage is 0.03.
With GGCAGAGCGCAACUCAGCGUGGCAAAGAGGCUGUGGCUAGACUGCC [U9G A14U U28A] the figure was 0.03; with GGCAGAGCGCACCACAGCGUGGCAAAGUGGCUGUGGCUAGACAGCC [U9G A12C U43A], 0; with GGCAGAGCCCAACAGAACGUAGCAAAGUGGCUGUGGCUAGUCUGCC [U9C C15G G17A G21A A41U], 0.02.
In the case of GGCAGAGCCCAACACAGCGUGGCAAAUUGGCUAUGGCUAGACUGCC [U9C G27U G33A], the self-cleavage is 0.05.
With GGCAGAGCGCAACACCGCGUGGCGAAGUGGCUGUAGCUGGACUGCC [U9G A16C A24G G35A A39G] the figure was 0.03; with GGCAGAGCGCAACACAGCGUGGCGAAGUGGCCGUUGCUAGACAGCC [U9G A24G U32C G35U U43A], 0.06.
GGCAGAGCCCAACAUAGCCUGGCAAAGUGGCUGUGGCUAGACUGCA [U9C C15U G19C C46A]: the self-cleavage worked out at 0.03.
With GGCAGAGCGCACCACAGCGUGGCAAAGUGGCUGUGGCUAUACUGCC [U9G A12C G40U] the figure was 0.03.
Consider GGCAGAGCCCAACACAGCGUAGCAAUGUGGCUGUGGCUAGACUGAC [U9C G21A A26U C45A], for which the self-cleavage was 0.03.
GGCAGAGCGCCACACAGCGUGGUAAAGUUGCUGUGGCUAGACUGCC [U9G A11C C23U G29U]: the self-cleavage is 0.
To GGCAGAGCCCAACACAGCGUGGCAAAGUGGCUGUGGCUAGAGUUCC [U9C C42G G44U] belongs 0; to GGCAGAGCCCAACACAGCGCGGCAAACUGGCUGUGGCUAGACUGCC [U9C U20C G27C], 0.03.
GGCAGAGCGCAACACAGCGUGGCAACGUGGCUGUGGCUAGACCGCC [U9G A26C U43C]: the self-cleavage was found to be 0.02.
Take GGCAGAGCGCUACACAGCGUGGCAAAGUGGCUGUGGAUAGACUGCC [U9G A11U C37A]: the self-cleavage was 0.03.
To GGCAGAGCGUAACACAGCGUUGCAGAGUGGCUGUGGCUAGACUGCC [U9G C10U G21U A25G] belongs 0.01; to GGCAGAGCGCAACACCGCGUGGCACAGUGGCUGUGGCUAGACUGCC [U9G A16C A25C], 0.09.
In the case of GGCAGAGCGCAGCACAGCGUGGCAAAAUGGCUGUGGCUAAACUGCC [U9G A12G G27A G40A], the self-cleavage turned out to be 0.1.
To GGCAGAGCGCAACACUGCGUGACAAACUUGCUGUGGAUAGACUGGC [U9G A16U G22A G27C G29U C37A C45G] belongs 0.15; to GGCAGAGCGCAACACUGCGUGGCAAAGUUGCUGUGGCUAGACUGCC [U9G A16U G29U], 0.01; to GGCAGAGCGCAACACAGCGUGGCAAGGUGGCUGUGGCUAGAAUGCC [U9G A26G C42A], 0.07.
To GGCAGAGCGCAACACAGCGUGGCACAGUCGCUGAGGCUUGACUGCC [U9G A25C G29C U34A A39U] belongs 0.05; to GGCAGAGCCCAACACAGCGUGGCAAAGUGGCUGUGGCGAGACCGCC [U9C U38G U43C], 0.01.
To GGCAGAGCGCAACACAGCGUGGCUAAGUGGCUGUGGGUAGACUGCC [U9G A24U C37G] belongs 0.26; to GGCAGAGCCCAACAUUGCGUGGCAAAGUGACUGUGGCUAGACUGCC [U9C C15U A16U G30A], 0.01; to GGCAGAGCCCAACACAGCGUGGCAAAGUGGCUGUGGCCAUACUGCC [U9C U38C G40U], 0.01.
Turning to GGCAGAGCCCAACACAGCGUGGCAAAGUUGCAGUGGCUAGACUGCC [U9C G29U U32A], the self-cleavage was 0.05.
To GGCAGAGCGCUACACAGCGUUGCAAAGUGGCUGUUGCUAGACUGCC [U9G A11U G21U G35U] belongs 0.03; to GGCAGAGCCCAACACAGCGUCGCAAAGAGGCUGUGGCUAGACUGCC [U9C G21C U28A], 0.02.
To GGCAGAGCGCAAAACAACGUGGUAAAGUGGCUGUGGCUAGACUGCC [U9G C13A G17A C23U] belongs 0.08; to GGCAGAGCGCAACACAGCGUGGCACAGUGGCUGUGGCUAGACUGCU [U9G A25C C46U], 0.07; to GGCAGAGCGCAACACAGCGUGGCGAAAUGGCUGUGGCUAGACUGCC [U9G A24G G27A], 0.13.
With GGCAGAGCGCAACACAGCGUGGCCAAGUGACUGUGGCUAGACUGCC [U9G A24C G30A] the figure was 0.03.
Take GGCAGAGCCCAACACAGCGUGGCAAAGUGGUUGUUGGUAGACUGUC [U9C C31U G35U C37G C45U]: the self-cleavage amounted to 0.
As for GGCAGAGCCCAACACAGCGUCGCAAAGUGGCUGUGGCUAGCCUGCC [U9C G21C A41C], the self-cleavage is 0.03.
Take GGCAGAGCGGAACACAGCGUUGCAAAGUGGCUGUGGCUAGACUGCC [U9G C10G G21U]: the self-cleavage was 0.03.
GGCAGAGCGUAACAUAGCGUGGCAAAGUGGCUAUGGCUAGCCUGCC [U9G C10U C15U G33A A41C]: the self-cleavage was 0.05.
On to GGCAGAGCCCAACACAACGUGGCGCAGUGGCUGUGGCUAGACUGCC [U9C G17A A24G A25C], for which the self-cleavage was determined as 0.02.
Take GGCAGAGCCCAACACAGCUUGGCAAAGUGGCUGUGGAUAGGCUGCC [U9C G19U C37A A41G]: the self-cleavage turned out to be 0.01.
To GGCAGAGCCCAACAUAGCGUGGCAAAGUGGCUGUGGCUGGUCUGCC [U9C C15U A39G A41U] belongs 0.03.
To GGCAGAGCGCACCACUGCCUGACAAAGUGGCUGUGGCUAGACUGCC [U9G A12C A16U G19C G22A] belongs 0.02; to GGCAGAGCCCAACACAGCGUGGCAAACUGGCUAUGGUUAGACUGCC [U9C G27C G33A C37U], 0.03.
To GGCAGAGCCCAACACAGCGUGGCAAAAUAUCUGUGGCCAGACUGCC [U9C G27A G29A G30U U38C] belongs 0.06; to GGCAGAGCCCAACAGAGCGUUGCAAAAGGGCUGUCGCUAGAGUGCC [U9C C15G G21U G27A U28G G35C C42G], 0.01; to GGCAGAGCGGACAACAGCGUGGCAAAUUGGCUGUGGCUAGACUGCC [U9G C10G A12C C13A G27U], 0.
In the case of GGCAGAGCCCAACACAGGGUGGCAAAGUUUCUGUGGCUAGAGUGCC [U9C C18G G29U G30U C42G], the self-cleavage stood at 0.02.
To GGCAGAGCGUAACACAGCGAGGCAAAGAGGCUGUGGCUAGACUGCC [U9G C10U U20A U28A] belongs 0.02; to GGCAGAGCCCAACACAGCGUGGCAAAGUGGAUGCGGCUAGAAUGCU [U9C C31A U34C C42A C46U], 0.
On to GGCAGAGCGGAACACUGCGUGGCAGUGUGGCUGUGGCUAGACUGCC [U9G C10G A16U A25G A26U], for which the self-cleavage was 0.
To GGCAGAGCGCAACGCAGCGUGGCAAAGGGUCUGUGGCUAGACUGCC [U9G A14G U28G G30U] belongs 0.04; to GGCAGAGCGCAACACGGCGAGGCAAAGUGACUGUGGCUAGACUGCC [U9G A16G U20A G30A], 0.03; to GGCAGAGCCCAACACAGAGUGGCAAAGUGGCUGUUGCUAGACUGCC [U9C C18A G35U], 0.05.
With GGCAGAGCGAAACACGGCGGGGCAAAGUGGCUGUGGCUAGAGUGCC [U9G C10A A16G U20G C42G] the figure was 0.01.
As for GGCAGAGCCCAACACAGCGUGGCAAAGUGCCUGUGGCUUGAGUAAC [U9C G30C A39U C42G G44A C45A], the self-cleavage turned out to be 0.01.
With GGCAGAGCGCAACACAGCGUGGCAGAGUGGCUGUGGCUAGACUGAC [U9G A25G C45A] the figure was 0.1.

Source of the values: the RNAGym collection of RNA variant scans (doi:10.7554/elife.90254).
